Measurements from PubChem BioAssay AID1963576 (National Center for Advancing Translational Sciences (NCATS), 2024).
The campaign covered roughly 46,000 compounds. About 60 (0.1%) were called active. Inconclusive results (about 3%) are left out. Calls come from the whole dose curve; as a rule, active = well fitted inhibition curve with a large enough effect; inconclusive = small, poorly fitted or top-dose-only effect; inactive = no such curve, though single readings can be large or run the other way. This is one part of the list.

Experiment: Primary qHTS assay for Inhibitors of ovarian cancer metastasis using an organotypic tumor microenvironment (TME) model.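 For activity change, negative = inhibition: plate controls were DMSO wells for no effect and tomatine positive control wells for full effect.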 Note: nearly all actives have a fitted effect of over 65% in size.
Conditions: SKOV3ip1-GFP adhesion/invasion on 3D omental model, fluorescence; series mostly up to 45.8 µM; activity change, negative = inhibition: at the top concentration
How it was run: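 A 3D layer of primary human omental fibroblasts, mesothelial cells, fibronectin and collagen I, grown 48 hr, received SKOV3ip1-GFP cells in serum-free medium plus compounds at 0.36-46 umol/L. After 2 hr RT and 16 hr 37 C, fixed adherent GFP cells were counted; normalized to DMSO and tomatine.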

Activity change, negative = inhibition, inactive:
COc1ccccc1CNc1ccc(-c2nc(-c3ccncc3)no2)cc1[N+](=O)[O-] -7.44%
N#Cc1c[nH]n2c(NC3CCCC3)c(-c3cccc(Cl)c3)nc12 -0.738%
Cc1ccc(N(CC(=O)Nc2ccc(C)c(F)c2)S(=O)(=O)c2c(C)n[nH]c2C)cc1 -0.132%
COc1cccc(NC(=O)c2cnn(-c3ccccc3)c2-n2cccc2)c1 -22.4%
CCc1ccc(Sc2cc(C(=O)NC(C)CC)c3ccccc3n2)cc1 (configuration not stated) -3.58%
CCOC(=O)C(Cc1c[nH]c2ccccc12)NC(=O)COc1ccc(Cl)c(C)c1 (configuration not stated) 3.91%
COc1cccc(CNC(=O)C2CCC(CNS(=O)(=O)c3ccc(Br)s3)CC2)c1 (configuration not stated) 8.72%
CCOc1nc(NC(=O)NS(=O)(=O)Oc2ccccc2)nc(-c2ccccc2)n1 -0.728%
CCOc1ccc(Sc2cc(C(=O)NCCc3ccccc3)c3ccccc3n2)cc1 7.86%
Cc1ccc2c(c1)c1c(c(=O)n(Cc3ccccc3)c(=O)n1CC(=O)NCc1ccccc1Cl)n2C -13.8%
Clc1ccc(COC(Cn2ccnc2)c2ccc(Cl)cc2Cl)cc1 (configuration not stated) 11.3%
COc1ccc(C(C)n2c(C)c3c(C)nnc(C)c3c2C)cc1 (configuration not stated) -6.58%
CN(C(=O)CN1C(=O)CCSc2ccc(S(=O)(=O)N3CCCC3)cc21)c1ccccc1 -4.07%
CCOC(=O)c1c(C)[nH]c(C)c1S(=O)(=O)NCC(=O)N1CCN(c2cccc(C)c2)C(C)C1 (configuration not stated) 3.62%
Cc1cccc(NC2=CC(c3cccc(Br)c3)N(c3cccc(C)c3)C2=O)c1 (configuration not stated) -4.04%
CC1=C(C(=O)N2CCN(c3cccc(C)c3C)CC2)C2(CCCCC2)OC1=O 6%

outcome, inactive:
CCOC(=O)c1sc2ncn(CC(=O)Nc3ccc(C)cc3Br)c(=O)c2c1C
COc1ccc(C)cc1NC(=O)Cn1c(=O)ccc2cc(S(=O)(=O)N3CCCC3)ccc21
CCOc1cc(C(=O)N2CCc3c([nH]c4ccccc34)C2c2ccccc2)cc(OCC)c1OCC (configuration not stated)
COc1ccc(-c2noc(CSc3nnc(-c4ccncc4)n3-c3ccc(C)cc3)n2)cc1
CCOc1ccc(OCC(=O)Nc2nnc3n2CCS3)cc1
COc1ccccc1-n1c(/C=C/c2c(C)n(C)c3ccccc23)nc2ccccc2c1=O
O=S(=O)(c1ccc2c(c1)CCN2)N1CCCCCC1
CCC(C)OC(=O)/C(C#N)=C\c1ccc(-c2cccc(C(F)(F)F)c2)o1 (configuration not stated)
Cc1cccc(C)c1Nc1nc2ccccc2nc1NS(=O)(=O)c1ccccc1
CCc1ccc(NCc2cc3cc(OC)c(OC)cc3n(CC(=O)Nc3cc(C)ccc3C)c2=O)cc1
O=C(Cn1c(=O)nc(-c2ccccc2)c2ccccc21)NCc1ccc(F)cc1
